Measurements published in the supplement of paper PMC12217912.
The list shows a part of the results. The full chains were built here from the parent and the listed change. Values near 0.05 are background.

B1: TEV protease; numbered along this chain (parent)
chain: MGESLFKGPRDYNPISSSICHLTNESDGHTTSLYGIGFGPFIITNKHLFRRNNGTLVVQSLHGVFKVKDTTTLQQHLVDGRDMIIIRMPKDFPPFPQKLKFREPQREERICLVTTNFQTKSMSSMVSDTSCTFPSGDGIFWKHWIQTKDGQCGSPLVSTRDGFIVGIHSASNFTNTNNYFTSVPKNFMELLTNQEAQQWVSGWRLNADSVLWGGHKVFMVKPEEPFQPVKEATQL

Variants of: B1
Assay: raw area under fraction-flipped curve 0-4 h after induction (AUC4h, not background-subtracted), DNA-recorder readout of cleavage of the substrate (dimensionless); higher = more cleavage of the substrate by the protease variant
Details: temperature: 34 °C; time window: 0-4 h after rhamnose induction
Protocol: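 In vivo DNA recorder in E. coli TOP10(DE3) ΔrhaA at 34 °C. Each TEVp single-site mutant (parent TEVp 0) is paired with a single-site variant of the 7-mer TEVs (canonical ENLYFQ|S). The substrate sits between flexible linkers in a Bxb1-sfGFP-TEVs-SsrA fusion, so cleavage stabilises Bxb1 and speeds flipping of a recombination array, read by NGS. The value is the raw area under the fraction-flipped curve over 0-4 h after rhamnose induction (AUC4h), with ≥20 reads per time point. It is not background-subtracted; inactive controls average about 0.047.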
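Further: Bxb1 expression induced with 0.2% (w/v) L-rhamnose at OD600 near 0.5, cultures sampled hourly, flipped fraction per protease–substrate barcode pair counted by paired-end Illumina sequencing.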

Row | Variant | area with substrate CNLYFQS | area with substrate DNLYFQS | area with substrate GNLYFQS | area with substrate HNLYFQS | area with substrate INLYFQS | area with substrate KNLYFQS | area with substrate LNLYFQS | area with substrate PNLYFQS | area with substrate QNLYFQS | area with substrate TNLYFQS | area with substrate VNLYFQS | area with substrate WNLYFQS | area with substrate YNLYFQS | area with substrate NNLYFQS | area with substrate SNLYFQS | area with substrate FNLYFQS | area with substrate MNLYFQS | area with substrate RNLYFQS
1 | S127E | 0.0656 | 0.0839 | 0.0657 | 0.0625 | 0.0608 | 0.0664 | 0.0742 | 0.0656 | 0.067 | 0.0669 | 0.0641 | 0.0636 | 0.0571 | – | – | – | – | –
2 | P93M | 0.0671 | 0.0885 | 0.0526 | – | 0.0514 | – | – | – | 0.0625 | 0.0642 | 0.0815 | 0.056 | 0.0515 | 0.053 | 0.076 | – | – | –
3 | K142I | 0.0758 | 0.0764 | 0.0662 | 0.0737 | – | – | – | 0.0589 | 0.101 | 0.0666 | – | 0.0735 | 0.0608 | 0.0689 | 0.0675 | 0.0736 | – | –
4 | E108A | 0.0513 | 0.0678 | 0.0523 | 0.0596 | – | 0.0632 | 0.0516 | 0.0426 | 0.057 | 0.0565 | – | 0.0546 | 0.0523 | – | 0.0719 | – | 0.0609 | –
5 | C111M | 0.064 | 0.056 | – | 0.0762 | 0.0366 | 0.07 | 0.0861 | 0.0736 | – | 0.0629 | 0.0639 | 0.0633 | 0.0622 | 0.0705 | 0.0727 | 0.0408 | – | –
6 | C111S | 0.063 | 0.103 | 0.0702 | 0.0668 | 0.0605 | 0.0656 | 0.0633 | 0.0686 | 0.0678 | 0.0707 | 0.0635 | 0.0554 | 0.0698 | – | 0.0686 | 0.0717 | 0.0917 | 0.0718
7 | K98C | 0.0881 | 0.0974 | – | 0.0598 | 0.0613 | 0.0613 | 0.0542 | 0.0672 | – | 0.0515 | 0.0719 | 0.0748 | 0.0677 | 0.0673 | 0.0697 | 0.0571 | 0.0778 | 0.0525
8 | K98A | 0.0519 | 0.0717 | – | 0.0773 | 0.0744 | 0.0697 | 0.0688 | 0.0667 | – | – | 0.0976 | 0.0573 | 0.0698 | 0.0614 | 0.0722 | – | 0.0719 | –
9 | K98L | 0.0314 | 0.0902 | 0.0562 | 0.0706 | – | 0.0725 | 0.0295 | 0.0469 | – | – | – | 0.0551 | – | 0.0498 | 0.0722 | 0.0611 | 0.0627 | –
10 | L99D | 0.0431 | 0.0673 | 0.0528 | 0.0374 | – | 0.079 | 0.0561 | 0.0612 | – | – | – | 0.0469 | 0.065 | 0.0712 | 0.0822 | 0.0565 | 0.0548 | –
11 | R106A | 0.0741 | 0.0797 | – | 0.0557 | 0.0715 | – | 0.0645 | – | 0.0826 | 0.069 | – | 0.0681 | 0.0513 | – | 0.0798 | – | 0.0619 | –
12 | K90W | 0.0683 | 0.0696 | – | – | 0.0593 | 0.0583 | 0.0586 | 0.0619 | – | 0.0555 | 0.0541 | 0.0474 | 0.0478 | – | 0.0594 | – | – | –
13 | F92C | 0.072 | 0.0903 | 0.0595 | 0.0691 | 0.0526 | 0.075 | 0.0521 | 0.0566 | – | 0.0587 | 0.0894 | 0.0702 | 0.0559 | – | 0.0604 | 0.055 | 0.0655 | –
